According to publication PMC5700166:
Only a part is listed here, and it is no random draw. The list includes weakly bound sequences.

How the values were obtained:
Test in all cases: protein-binding microarray (PBM)
Details in all cases: PBM: ~300 nM protein, 6 mM HEPES pH 7.8, 80 mM KCl, 0.5 mM EDTA, 0.5 mM EGTA, 6% glycerol, 35 ng/ul poly-dIdC, 1% milk, 1 h, room temperature; Ap Aiptasia and Nv Nematostella (sea anemones) / Co Capsaspora / Aq Amphimedon (sponge) / Dm Drosophila / Hu human; RHD is the Rel homology domain; high values mean tight binding; most listed sequences are background and not binding sites; double strand, one strand shown
GST-Ap-NF-kB RHD = molecular target: T1, GST-Ap-NF-kB RHD (UniProt A0A913YAJ5)
T1 sequence: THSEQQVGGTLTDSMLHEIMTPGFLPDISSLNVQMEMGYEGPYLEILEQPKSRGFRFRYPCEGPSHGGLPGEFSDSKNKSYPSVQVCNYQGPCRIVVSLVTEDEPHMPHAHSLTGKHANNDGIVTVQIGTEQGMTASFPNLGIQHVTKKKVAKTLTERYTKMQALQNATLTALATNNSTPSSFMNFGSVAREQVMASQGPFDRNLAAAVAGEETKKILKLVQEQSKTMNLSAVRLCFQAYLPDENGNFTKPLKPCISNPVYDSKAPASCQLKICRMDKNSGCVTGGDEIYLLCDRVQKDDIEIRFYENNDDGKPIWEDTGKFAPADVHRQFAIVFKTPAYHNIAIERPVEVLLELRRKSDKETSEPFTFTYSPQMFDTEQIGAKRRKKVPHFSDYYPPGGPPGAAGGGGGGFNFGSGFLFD

[1] = molecular target: T2, GST-Nv-NF-kB (Cys allele) (UniProt E5G601)
T2 sequence: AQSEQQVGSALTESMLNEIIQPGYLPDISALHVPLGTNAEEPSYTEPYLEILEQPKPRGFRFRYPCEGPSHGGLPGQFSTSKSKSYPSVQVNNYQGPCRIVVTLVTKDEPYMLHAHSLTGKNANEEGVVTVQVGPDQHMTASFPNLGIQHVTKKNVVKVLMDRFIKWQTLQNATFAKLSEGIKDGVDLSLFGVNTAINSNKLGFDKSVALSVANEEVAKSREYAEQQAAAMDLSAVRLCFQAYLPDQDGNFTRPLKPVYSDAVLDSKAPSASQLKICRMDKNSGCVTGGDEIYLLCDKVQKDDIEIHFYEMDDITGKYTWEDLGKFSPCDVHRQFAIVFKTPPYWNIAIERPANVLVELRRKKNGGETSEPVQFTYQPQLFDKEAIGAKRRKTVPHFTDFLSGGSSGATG

GST-Co-NF-kB = molecular target: T3, GST-Co-NF-kB (UniProt F1ARL5)
T3 sequence: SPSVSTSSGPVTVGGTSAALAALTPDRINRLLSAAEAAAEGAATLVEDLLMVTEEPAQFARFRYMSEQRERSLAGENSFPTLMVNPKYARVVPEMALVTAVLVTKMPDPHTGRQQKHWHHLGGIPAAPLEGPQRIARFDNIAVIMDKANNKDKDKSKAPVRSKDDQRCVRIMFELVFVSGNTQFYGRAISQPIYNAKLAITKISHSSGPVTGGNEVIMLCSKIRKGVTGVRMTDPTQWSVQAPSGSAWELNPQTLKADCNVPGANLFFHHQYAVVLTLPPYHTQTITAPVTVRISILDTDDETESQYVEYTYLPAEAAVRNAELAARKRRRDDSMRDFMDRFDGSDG

GST-Aq-NF-kB = molecular target: T4, GST-Aq-NF-kB (UniProt A9Y5G7)
T4 sequence: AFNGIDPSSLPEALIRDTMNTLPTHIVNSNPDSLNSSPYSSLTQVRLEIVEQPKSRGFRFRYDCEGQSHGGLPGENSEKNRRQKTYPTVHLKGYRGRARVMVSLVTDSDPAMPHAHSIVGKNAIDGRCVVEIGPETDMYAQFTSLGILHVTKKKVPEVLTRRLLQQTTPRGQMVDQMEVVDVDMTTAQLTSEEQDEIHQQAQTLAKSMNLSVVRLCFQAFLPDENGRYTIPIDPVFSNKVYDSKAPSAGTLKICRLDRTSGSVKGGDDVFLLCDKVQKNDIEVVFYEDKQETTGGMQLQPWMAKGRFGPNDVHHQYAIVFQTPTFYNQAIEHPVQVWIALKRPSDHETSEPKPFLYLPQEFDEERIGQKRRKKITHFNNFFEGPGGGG

GST-Dm-Relish = molecular target: T5, GST-Dm-Relish (UniProt Q94527)
T5 sequence: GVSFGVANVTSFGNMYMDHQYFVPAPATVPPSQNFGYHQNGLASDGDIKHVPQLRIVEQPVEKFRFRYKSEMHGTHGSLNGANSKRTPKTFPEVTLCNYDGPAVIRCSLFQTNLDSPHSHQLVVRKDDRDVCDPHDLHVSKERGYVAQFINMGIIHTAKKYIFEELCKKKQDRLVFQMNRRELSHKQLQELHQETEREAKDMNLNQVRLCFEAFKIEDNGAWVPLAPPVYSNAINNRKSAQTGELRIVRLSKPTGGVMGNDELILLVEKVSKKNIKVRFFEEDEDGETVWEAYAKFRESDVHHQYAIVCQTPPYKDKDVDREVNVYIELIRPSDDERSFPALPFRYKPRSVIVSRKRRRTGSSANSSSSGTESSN

| Sequence | binding signal (GST-Ap-NF-kB RHD) [z-score] | binding signal [1] [z-score] | binding signal (GST-Co-NF-kB) [z-score] | binding signal (GST-Aq-NF-kB) [z-score] | binding signal (GST-Dm-Relish) [z-score] |
| --- | --- | --- | --- | --- | --- |
| CCGATTAACATCAGAATTCCCCCTGATGTTAATCGGGTCTTGATTCGCTTGACGCTGCTG | 10.1 | 11.8 | 10.8 | 8.47 | – |
| CCGATTAACATCAGTATTTTCCATGATGTTAATCGGGTCTTGATTCGCTTGACGCTGCTG | -0.253 | 0.253 | 0.71 | 0.73 | – |
| CCGATTAACATCAGGGAACTCCCTGATGTTAATCGGGTCTTGATTCGCTTGACGCTGCTG | 8.33 | 10.6 | 3.39 | 9.76 | – |
| CCGATTAACATCAGGAGTTTCCATGATGTTAATCGGGTCTTGATTCGCTTGACGCTGCTG | -0.0595 | -0.226 | -0.325 | 2.43 | – |
| CCGATTAACATCACAAAAATTCCTGATGTTAATCGGGTCTTGATTCGCTTGACGCTGCTG | -0.11 | 0.54 | 0.621 | 1.5 | – |
| CCGATTAACATCACCCATTTCCGTGATGTTAATCGGGTCTTGATTCGCTTGACGCTGCTG | 0.71 | 0.594 | 1.41 | 0.492 | – |
| CCGATTAACATCATGATATCCGGTGATGTTAATCGGGTCTTGATTCGCTTGACGCTGCTG | 0.262 | 0.242 | 0.189 | 0.557 | – |
| CCGATTAACATCAGAAAAATTCCTGATGTTAATCGGGTCTTGATTCGCTTGACGCTGCTG | -0.0948 | 0.278 | -0.531 | 2.21 | – |
| CCGATTAACATCAGGAAAATTTATGATGTTAATCGGGTCTTGATTCGCTTGACGCTGCTG | -0.237 | 0.0555 | 0.863 | 1.26 | – |
| CCGATTAACATCAGGATTTACCATGATGTTAATCGGGTCTTGATTCGCTTGACGCTGCTG | 0.481 | 0.462 | 0.0234 | 1.48 | – |
| CCGATTAACATCAGAATTTCCTATGATGTTAATCGGGTCTTGATTCGCTTGACGCTGCTG | 0.134 | 0.118 | 0.57 | 0.807 | – |
| CCGATTAACATCATCGCGCGACATGATGTTAATCGGGTCTTGATTCGCTTGACGCTGCTG | -0.197 | 0.251 | -0.97 | -0.297 | -0.673 |
| CCGATTAACATCACGTGTTTTCCTGATGTTAATCGGGTCTTGATTCGCTTGACGCTGCTG | -0.14 | 0.172 | 0.177 | 0.835 | – |
| CCGATTAACATCAGAAATCCCACTGATGTTAATCGGGTCTTGATTCGCTTGACGCTGCTG | 2.54 | 2.54 | 1.65 | 2.41 | – |
| CCGATTAACATCAGGAAAATCACTGATGTTAATCGGGTCTTGATTCGCTTGACGCTGCTG | -0.257 | -0.689 | 0.253 | 0.492 | – |
| CCGATTAACATCAAGTGATTTCCTGATGTTAATCGGGTCTTGATTCGCTTGACGCTGCTG | -0.0488 | -0.404 | -0.0331 | 0.57 | – |
| CCGATTAACATCAGGAAGGCCCCTGATGTTAATCGGGTCTTGATTCGCTTGACGCTGCTG | 2.9 | 2.69 | -0.524 | 5.3 | – |
| CCGATTAACATCACTCTGGCTCTTGATGTTAATCGGGTCTTGATTCGCTTGACGCTGCTG | -0.207 | -0.122 | -0.29 | -0.441 | -0.562 |
| CCGATTAACATCACGTAAAACCCTGATGTTAATCGGGTCTTGATTCGCTTGACGCTGCTG | 0.621 | -0.0162 | 0.599 | 2.12 | – |
| CCGATTAACATCAAATTTCCCCATGATGTTAATCGGGTCTTGATTCGCTTGACGCTGCTG | 7.86 | 9.05 | 9.42 | 7.31 | – |
| CCGATTAACATCACTGGAATTCCTGATGTTAATCGGGTCTTGATTCGCTTGACGCTGCTG | 0.14 | 0.747 | 0.863 | 1.7 | – |
| CCGATTAACATCATAAATGACATTGATGTTAATCGGGTCTTGATTCGCTTGACGCTGCTG | -0.978 | -0.0537 | -1 | -0.39 | -0.0568 |
| CCGATTAACATCAAGTAGTTTCCTGATGTTAATCGGGTCTTGATTCGCTTGACGCTGCTG | -0.123 | 0.0909 | 0.302 | 0.568 | – |
| CCGATTAACATCACCGAAATTCCTGATGTTAATCGGGTCTTGATTCGCTTGACGCTGCTG | 0.423 | 0.68 | 0.522 | 0.961 | – |
| CCGATTAACATCAGCATAATATATGATGTTAATCGGGTCTTGATTCGCTTGACGCTGCTG | 0.0409 | -0.0481 | 0.575 | 0.0876 | 0.139 |
| CCGATTAACATCAGGAAATCACATGATGTTAATCGGGTCTTGATTCGCTTGACGCTGCTG | -0.0739 | 0.214 | 0.266 | 0.484 | – |
| CCGATTAACATCACTTTCGGCAATGATGTTAATCGGGTCTTGATTCGCTTGACGCTGCTG | -0.462 | 0.0244 | -0.114 | -0.494 | 0.446 |
